Results published in the supplement of paper PMC8728848.
This is one part of the list.

How the values were obtained:
Assay in all cases: glycan array binding signal (z-score within array); higher = stronger binding
Conditions in all cases: glycan notation: IUPAC condensed, linker removed; mutation: D109R
[1] = target: Fuc(a1-2)[GalNAc(a1-3)]Gal(b1-3)GlcNAc(b1-3)GalNAc
Method in brief: (§1)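 The binding signal is a Z-score computed within each array. Data were drawn from 3228 arrays in the Consortium for Functional Glycomics database, restricted to those with a known protein sequence. Scores were averaged over arrays of the same protein sequence at different concentrations or buffers, and over linkers, and negative values can be taken as non-binding.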

[2] = target: Fuc(a1-2)[GalNAc(a1-3)]Gal(b1-3)GlcNAc(b1-6)GalNAc
Method in brief: as §1

[3] = target: Fuc(a1-2)[GalNAc(a1-3)]Gal(b1-4)Glc
Method in brief: as §1

[4] = target: Fuc(a1-2)[GalNAc(a1-3)]Gal(b1-4)GlcNAc
Method in brief: as §1

[5] = target: Fuc(a1-2)[GalNAc(a1-3)]Gal(b1-4)GlcNAc(b1-2)Man
Method in brief: as §1

[6] = target: Fuc(a1-2)[GalNAc(a1-3)]Gal(b1-4)GlcNAc(b1-2)Man(a1-3)[Fuc(a1-2)[GalNAc(a1-3)]Gal(b1-4)GlcNAc(b1-2)Man(a1-6)]Man(b1-4)GlcNAc(b1-4)GlcNAc
Method in brief: as §1

[7] = target: Fuc(a1-2)[GalNAc(a1-3)]Gal(b1-4)GlcNAc(b1-2)Man(a1-3)[Fuc(a1-2)[GalNAc(a1-3)]Gal(b1-4)GlcNAc(b1-2)Man(a1-6)]Man(b1-4)GlcNAc(b1-4)[Fuc(a1-6)]GlcNAc
Method in brief: as §1

[8] = target: Fuc(a1-2)[GalNAc(a1-3)]Gal(b1-4)GlcNAc(b1-3)Gal(b1-4)GlcNAc
Method in brief: as §1

[9] = target: Fuc(a1-2)[GalNAc(a1-3)]Gal(b1-4)GlcNAc(b1-3)Gal(b1-4)GlcNAc(b1-3)Gal(b1-4)GlcNAc
Method in brief: as §1

[10] = target: Fuc(a1-2)[GalNAc(a1-3)]Gal(b1-4)GlcNAc(b1-3)GalNAc
Method in brief: as §1

[11] = target: Fuc(a1-2)[GalNAc(a1-3)]Gal(b1-4)GlcNAc(b1-3)[Fuc(a1-2)[GalNAc(a1-3)]Gal(b1-4)GlcNAc(b1-6)]GalNAc
Method in brief: as §1

[12] = target: Fuc(a1-2)[GalNAc(a1-3)]Gal(b1-4)GlcNAc(b1-6)GalNAc
Method in brief: as §1

[13] = target: Fuc(a1-2)[GalNAc(a1-3)]Gal(b1-4)[Fuc(a1-3)]GlcNAc
Method in brief: as §1

[14] = target: Fuc(a1-2)[GalNAc(a1-3)]Gal(b1-4)[Fuc(a1-3)]GlcNAc(b1-3)GalNAc
Method in brief: as §1

[15] = target: Fuc(a1-2)[GalNAc(a1-4)]Gal(b1-4)GlcNAc
Method in brief: as §1

[16] = target: Fuc(a1-2)[GalNAc(b1-3)]Gal
Method in brief: as §1

[17] = target: Fuc(a1-3)GlcNAc
Method in brief: as §1

[18] = target: Fuc(a1-3)[Gal(b1-4)]Glc6S
Method in brief: as §1

[19] = target: Fuc(a1-3)[Gal(b1-4)]GlcNAc
Method in brief: as §1

[20] = target: Fuc(a1-3)[Gal(b1-4)]GlcNAc(b1-2)Man
Method in brief: as §1

[21] = target: Fuc(a1-3)[Gal(b1-4)]GlcNAc(b1-2)Man(a1-3)[Fuc(a1-3)[Gal(b1-4)]GlcNAc(b1-2)Man(a1-6)]Man(b1-4)GlcNAc(b1-4)GlcNAc
Method in brief: as §1

[22] = target: Fuc(a1-3)[Gal(b1-4)]GlcNAc(b1-2)Man(a1-3)[Fuc(a1-3)[Gal(b1-4)]GlcNAc(b1-2)Man(a1-6)]Man(b1-4)GlcNAc(b1-4)[Fuc(a1-6)]GlcNAc
Method in brief: as §1

[23] = target: Fuc(a1-3)[Gal(b1-4)]GlcNAc(b1-3)Gal(b1-3)[Fuc(a1-4)]GlcNAc
Method in brief: as §1

[24] = target: Fuc(a1-3)[Gal(b1-4)]GlcNAc(b1-3)Gal(b1-4)[Fuc(a1-3)]GlcNAc
Method in brief: as §1

[25] = target: Fuc(a1-3)[Gal(b1-4)]GlcNAc(b1-3)Gal(b1-4)[Fuc(a1-3)]GlcNAc(b1-3)Gal(b1-4)[Fuc(a1-3)]GlcNAc
Method in brief: as §1

[26] = target: Fuc(a1-3)[Gal(b1-4)]GlcNAc(b1-3)GalNAc
Method in brief: as §1

[27] = target: Fuc(a1-3)[Gal(b1-4)]GlcNAc(b1-6)GalNAc
Method in brief: as §1

[28] = target: Fuc(a1-3)[Gal(b1-4)]GlcNAc(b1-6)[Gal(b1-3)GlcNAc(b1-3)]Gal(b1-4)Glc
Method in brief: as §1

[29] = target: Fuc(a1-3)[Gal(b1-4)]GlcNAc6S
Method in brief: as §1

[30] = target: Fuc(a1-3)[Gal3S(b1-4)]Glc
Method in brief: as §1

[31] = target: Fuc(a1-3)[Gal3S(b1-4)]GlcNAc
Method in brief: as §1

[32] = target: Fuc(a1-3)[Gal3S(b1-4)]GlcNAc6S
Method in brief: as §1

[33] = target: Fuc(a1-3)[GalNAc(b1-4)]GlcNAc
Method in brief: as §1

[34] = target: Fuc(a1-3)[GalNAc(b1-4)]GlcNAc6S
Method in brief: as §1

[35] = target: Fuc(a1-4)GlcNAc
Method in brief: as §1

[36] = target: Fuc(b1-3)GlcNAc
Method in brief: as §1

[37] = target: Gal(a1-2)Gal
Method in brief: as §1

[38] = target: Gal(a1-3)Gal
Method in brief: as §1

[39] = target: Gal(a1-3)Gal(b1-3)GlcNAc
Method in brief: as §1

[40] = target: Gal(a1-3)Gal(b1-3)GlcNAc(b1-2)Man
Method in brief: as §1

[41] = target: Gal(a1-3)Gal(b1-3)GlcNAc(b1-2)Man(a1-3)[Gal(a1-3)Gal(b1-3)GlcNAc(b1-2)Man(a1-6)]Man(b1-4)GlcNAc(b1-4)GlcNAc
Method in brief: as §1

[42] = target: Gal(a1-3)Gal(b1-3)GlcNAc(b1-3)GalNAc
Method in brief: as §1

[43] = target: Gal(a1-3)Gal(b1-3)GlcNAc(b1-6)GalNAc
Method in brief: as §1

[44] = target: Gal(a1-3)Gal(b1-3)[Fuc(a1-4)]GlcNAc(b1-2)Man(a1-3)[Gal(a1-3)Gal(b1-3)[Fuc(a1-4)]GlcNAc(b1-2)Man(a1-6)]Man(b1-4)GlcNAc(b1-4)GlcNAc
Method in brief: as §1

[45] = target: Gal(a1-3)Gal(b1-4)Glc
Method in brief: as §1

B1: MpL2 (Macrolepiota procera) (protein)
chain: MSTQVSSGQTYKITNVKAGTVIDLSGEDNKSIIGYPYHSGKNQQWTFNWTGKAWTLRSASSGSYLGIEGTPADGTRLVAVNDPFEWHIWRDEANENAFRIFVPFTNYNLRLSGYGDTTPGTPVQLWWTWEGLHQTWTIDRP
[1]
  glycan array binding signal (z-score): -0.187
[2]
  glycan array binding signal (z-score): -0.29
[3]
  glycan array binding signal (z-score): -0.247
[4]
  glycan array binding signal (z-score): -0.264
[5]
  glycan array binding signal (z-score): -0.302
[6]
  glycan array binding signal (z-score): -0.274
[7]
  glycan array binding signal (z-score): -0.241
[8]
  glycan array binding signal (z-score): -0.263
[9]
  glycan array binding signal (z-score): -0.197
[10]
  glycan array binding signal (z-score): -0.293
[11]
  glycan array binding signal (z-score): -0.266
[12]
  glycan array binding signal (z-score): -0.295
[13]
  glycan array binding signal (z-score): -0.222
[14]
  glycan array binding signal (z-score): -0.088
[15]
  glycan array binding signal (z-score): -0.338
[16]
  glycan array binding signal (z-score): -0.247
[17]
  glycan array binding signal (z-score): -0.272
[18]
  glycan array binding signal (z-score): -0.275
[19]
  glycan array binding signal (z-score): -0.256
[20]
  glycan array binding signal (z-score): -0.293
[21]
  glycan array binding signal (z-score): -0.267
[22]
  glycan array binding signal (z-score): -0.216
[23]
  glycan array binding signal (z-score): -0.285
[24]
  glycan array binding signal (z-score): -0.257
[25]
  glycan array binding signal (z-score): -0.272
[26]
  glycan array binding signal (z-score): -0.254
[27]
  glycan array binding signal (z-score): -0.191
[28]
  glycan array binding signal (z-score): 0.236
[29]
  glycan array binding signal (z-score): -0.237
[30]
  glycan array binding signal (z-score): -0.239
[31]
  glycan array binding signal (z-score): -0.247
[32]
  glycan array binding signal (z-score): -0.255
[33]
  glycan array binding signal (z-score): -0.239
[34]
  glycan array binding signal (z-score): -0.26
[35]
  glycan array binding signal (z-score): -0.251
[36]
  glycan array binding signal (z-score): -0.258
[37]
  glycan array binding signal (z-score): -0.285
[38]
  glycan array binding signal (z-score): -0.242
[39]
  glycan array binding signal (z-score): -0.242
[40]
  glycan array binding signal (z-score): -0.239
[41]
  glycan array binding signal (z-score): -0.213
[42]
  glycan array binding signal (z-score): -0.237
[43]
  glycan array binding signal (z-score): -0.272
[44]
  glycan array binding signal (z-score): -0.234
[45]
  glycan array binding signal (z-score): -0.236
